Source: patent US9763922B2 (priority 2014, dated 2017)

What was measured:
[1] = tested on: MYC; test: cells; settings: Homo sapiens, MV4-11, 4 h, read-out: Myc IC50 (μM)
[2] = target: BRD4 BD1 (Homo sapiens (Human), UniProt O60885); test: biochemical
[3] = target: CBP (Homo sapiens (Human), UniProt Q92793); test: biochemical
Sequence of CBP (Q92793 whole entry): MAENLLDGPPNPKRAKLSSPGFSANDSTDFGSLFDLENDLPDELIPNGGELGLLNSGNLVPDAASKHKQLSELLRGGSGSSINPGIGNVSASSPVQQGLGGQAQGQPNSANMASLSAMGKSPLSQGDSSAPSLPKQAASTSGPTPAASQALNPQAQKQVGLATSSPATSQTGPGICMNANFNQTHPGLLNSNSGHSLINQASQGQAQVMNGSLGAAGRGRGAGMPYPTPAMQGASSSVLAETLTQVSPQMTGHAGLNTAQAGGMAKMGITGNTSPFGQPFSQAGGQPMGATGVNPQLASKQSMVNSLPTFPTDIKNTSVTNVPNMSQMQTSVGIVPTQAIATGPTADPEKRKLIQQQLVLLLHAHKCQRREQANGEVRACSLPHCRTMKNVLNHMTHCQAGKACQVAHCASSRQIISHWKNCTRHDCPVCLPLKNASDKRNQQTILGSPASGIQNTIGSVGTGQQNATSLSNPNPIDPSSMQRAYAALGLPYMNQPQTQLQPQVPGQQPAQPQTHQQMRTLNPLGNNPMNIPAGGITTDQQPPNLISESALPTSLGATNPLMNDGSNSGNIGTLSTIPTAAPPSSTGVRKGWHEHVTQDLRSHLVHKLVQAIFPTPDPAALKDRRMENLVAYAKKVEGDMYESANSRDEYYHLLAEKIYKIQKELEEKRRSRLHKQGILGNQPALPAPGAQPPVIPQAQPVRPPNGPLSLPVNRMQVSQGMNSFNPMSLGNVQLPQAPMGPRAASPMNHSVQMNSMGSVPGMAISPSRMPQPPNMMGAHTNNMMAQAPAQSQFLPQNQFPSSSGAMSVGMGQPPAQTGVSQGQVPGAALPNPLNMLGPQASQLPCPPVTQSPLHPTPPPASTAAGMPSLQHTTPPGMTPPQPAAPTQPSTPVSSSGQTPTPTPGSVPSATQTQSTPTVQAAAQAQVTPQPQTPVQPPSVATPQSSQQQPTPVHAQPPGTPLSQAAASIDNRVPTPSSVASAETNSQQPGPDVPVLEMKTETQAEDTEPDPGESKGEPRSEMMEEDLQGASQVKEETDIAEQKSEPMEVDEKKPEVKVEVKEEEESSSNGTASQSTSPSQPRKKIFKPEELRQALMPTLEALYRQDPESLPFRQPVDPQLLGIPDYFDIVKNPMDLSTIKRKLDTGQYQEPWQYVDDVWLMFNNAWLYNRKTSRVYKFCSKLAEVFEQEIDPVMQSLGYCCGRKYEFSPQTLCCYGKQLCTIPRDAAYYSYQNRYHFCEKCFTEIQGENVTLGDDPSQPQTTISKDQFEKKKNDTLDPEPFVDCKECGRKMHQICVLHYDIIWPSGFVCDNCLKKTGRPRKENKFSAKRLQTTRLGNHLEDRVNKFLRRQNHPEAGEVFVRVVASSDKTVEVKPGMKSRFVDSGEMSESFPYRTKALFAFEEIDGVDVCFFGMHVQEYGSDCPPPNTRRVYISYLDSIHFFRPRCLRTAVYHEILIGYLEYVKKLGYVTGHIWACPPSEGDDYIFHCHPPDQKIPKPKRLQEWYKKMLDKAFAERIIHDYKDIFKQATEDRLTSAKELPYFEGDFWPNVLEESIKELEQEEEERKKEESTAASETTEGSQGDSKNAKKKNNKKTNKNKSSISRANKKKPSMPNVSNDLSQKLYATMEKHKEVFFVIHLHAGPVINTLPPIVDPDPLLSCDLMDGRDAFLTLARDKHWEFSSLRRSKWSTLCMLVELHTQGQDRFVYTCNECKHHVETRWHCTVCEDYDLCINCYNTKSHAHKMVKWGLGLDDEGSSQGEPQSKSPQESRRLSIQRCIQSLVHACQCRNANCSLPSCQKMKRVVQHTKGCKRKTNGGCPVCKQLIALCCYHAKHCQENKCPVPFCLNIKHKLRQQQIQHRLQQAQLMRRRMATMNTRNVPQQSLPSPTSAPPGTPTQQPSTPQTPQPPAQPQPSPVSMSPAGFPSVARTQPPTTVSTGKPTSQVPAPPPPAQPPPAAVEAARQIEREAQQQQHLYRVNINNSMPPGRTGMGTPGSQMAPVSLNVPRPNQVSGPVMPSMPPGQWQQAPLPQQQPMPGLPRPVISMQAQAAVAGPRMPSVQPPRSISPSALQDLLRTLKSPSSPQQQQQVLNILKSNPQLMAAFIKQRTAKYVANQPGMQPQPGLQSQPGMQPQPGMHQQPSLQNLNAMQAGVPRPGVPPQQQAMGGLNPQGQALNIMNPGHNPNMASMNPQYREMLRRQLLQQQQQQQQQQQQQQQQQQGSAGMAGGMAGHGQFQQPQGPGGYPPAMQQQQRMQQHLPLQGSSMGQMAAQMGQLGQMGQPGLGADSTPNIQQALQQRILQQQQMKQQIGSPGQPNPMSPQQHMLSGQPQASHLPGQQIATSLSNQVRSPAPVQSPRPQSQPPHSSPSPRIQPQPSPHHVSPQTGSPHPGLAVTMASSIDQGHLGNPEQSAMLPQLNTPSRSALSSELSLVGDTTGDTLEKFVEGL

SMILES	IC50 [1]	IC50 [2]	IC50 [3]
CC(=O)N1CCc2c(c(N3CCCc4cc(-c5cn(C)nc5C)ccc43)nn2[C@H]2CCOC2)C1 [Example 55, 1-[3-[6-(1,3-dimethylpyrazol-4-yl)-3,4-dihydro-2H-quinolin-1-yl]-1-[(3S)-tetrahydrofuran-3-yl]-6,7-dihydro-4H-pyrazolo[4,3-c]pyridin-5-yl]ethanone]	0.254 µM	> 20000 nM	–
COc1ccc(-c2ccc3c(c2)CCCN3c2nn(C3COC3)c3c2CN(C(C)=O)CC3)cn1 [Example 19, 1-[3-[6-(6-methoxy-3-pyridyl)-3,4-dihydro-2H-quinolin-1-yl]-1-(oxetan-3-yl)-6,7-dihydro-4H-pyrazolo[4,3-c]pyridin-5-yl]ethanone]	2.6 µM	> 20000 nM	–
CC(=O)Nc1ccc(-c2ccc3c(c2)CCCN3c2nn(C3COC3)c3c2CN(C(C)=O)CC3)cn1 [Example 33, N-[5-[1-[5-acetyl-1-(oxetan-3-yl)-6,7-dihydro-4H-pyrazolo[4,3-c]pyridin-3-yl]-3,4-dihydro-2H-quinolin-6-yl]-2-pyridyl]acetamide]	1.58 µM	> 20000 nM	–
CC(=O)N1CCc2c(c(N(c3ccccc3)c3ccc(-c4cnn(C)c4)cc3)nn2[C@H]2CCOC2)C1 [Example 229, 1-[3-(N-[4-(1-methylpyrazol-4-yl)phenyl]anilino)-1-[(3S)-tetrahydrofuran-3-yl]-6,7-dihydro-4H-pyrazolo[4,3-c]pyridin-5-yl]ethanone]	–	> 20000 nM	461 nM
CC(=O)N1CCc2c(c(N3CCCc4cc(-c5cnn(C)c5C)ccc43)nn2C2COC2)C1 [Example 36, 1-[3-[6-(1,5-dimethylpyrazol-4-yl)-3,4-dihydro-2H-quinolin-1-yl]-1-(oxetan-3-yl)-6,7-dihydro-4H-pyrazolo[4,3-c]pyridin-5-yl]ethanone]	1.86 µM	> 20000 nM	–
COc1cc(-c2ccc3c(c2)CCCN3c2nn(C3COC3)c3c2CN(C(C)=O)CC3)ccn1 [Example 17, 1-[3-[6-(2-methoxy-4-pyridyl)-3,4-dihydro-2H-quinolin-1-yl]-1-(oxetan-3-yl)-6,7-dihydro-4H-pyrazolo[4,3-c]pyridin-5-yl]ethanone]	1.14 µM	8800 nM	–
CC(=O)N1CCc2c(c(N3CCCc4cc(-c5cnn(C6CC6)c5)ccc43)nn2[C@H]2CCOC2)C1 [Example 49, 1-[3-[6-(1-cyclopropylpyrazol-4-yl)-3,4-dihydro-2H-quinolin-1-yl]-1-[(3S)-tetrahydrofuran-3-yl]-6,7-dihydro-4H-pyrazolo[4,3-c]pyridin-5-yl]ethanone]	1.13 µM	14300 nM	–
CC(=O)N1CCc2c(c(N3CCCc4cc(-c5cc(C)[nH]n5)ccc43)nn2[C@H]2CCOC2)C1 [Example 58, 1-[3-[6-(5-methyl-1H-pyrazol-3-yl)-3,4-dihydro-2H-quinolin-1-yl]-1-[(3S)-tetrahydrofuran-3-yl]-6,7-dihydro-4H-pyrazolo[4,3-c]pyridin-5-yl]ethanone]	0.199 µM	> 20000 nM	–
COc1cc(-c2ccc3c(c2)CCCN3c2nn([C@H]3CCOC3)c3c2CN(C(C)=O)CC3)ccn1 [Example 48, 1-[3-[6-(2-methoxy-4-pyridyl)-3,4-dihydro-2H-quinolin-1-yl]-1-[(3S)-tetrahydrofuran-3-yl]-6,7-dihydro-4H-pyrazolo[4,3-c]pyridin-5-yl]ethanone]	0.669 µM	7700 nM	–
